In paper PMC12136788 one finds binding signal data, which are given here for 22 molecules.

The chains are these.
T1: UNK ZnF1-3 (human, UniProt Q9C0B0 31-174)
T1 sequence: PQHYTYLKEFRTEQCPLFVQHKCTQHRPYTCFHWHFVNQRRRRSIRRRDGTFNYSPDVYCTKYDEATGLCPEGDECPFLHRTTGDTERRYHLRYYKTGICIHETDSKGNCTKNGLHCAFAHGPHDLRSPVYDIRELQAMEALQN

B1: chr3:9412954:9412955:+_ENSG00000134077_ENST00000452837|hu_mus|hu_hu_hu_mus_False|8_48 (ssRNA)
RNA: GGGAGUUCUACAGUCCGACGAUCGGUUGAUAUCUCUUCUUUGAUGGCUGGAUUUUCAUAAUAGUCCAAGAUAUGUGAAUCUGAAGUAUGGCUAGUGUGCUUUUUCUUACCAUCUUUCUCAUCUGCUUUGACUUCUUGUCCACACAACAGAGGAUUGAGCAUCA
B2: chr7:54825262:54825263:-_ENSG00000132432_ENST00000352861|hu_hu|hu_hu_hu_mus_False|38_78 (ssRNA)
RNA: GGGAGUUCUACAGUCCGACGAUCCUGCCGGCUGGGCUCCACAAACUGCAUUACCUGCAUGACUGCCGUUGGAUGGCGGAUUGAGAGCGUAGAGACAACGUAGCACUGAGAGAACCGAGCCCAACGGAACCGGAAGCUGGCAACCAACAGAGGAUUGAGCAUCA
B3: chr10:61154807:61154808:+_ENSMUSG00000020088_ENSMUST00000020285|mus_mus|motif|central (ssRNA)
RNA: GGGAGUUCUACAGUCCGACGAUCAACUCUUUCAUGAGGCAAAAGUCACUUUUUAUAUCUACAAUGGAAAAAAGGAAGGUGCGGCACAGAGAGAUGAAAUUUCACAACAGUAUAAAAGCAAAGCCUGCUGAAACUGGUAACUGCCAACAGAGGAUUGAGCAUCA
B4: chr4:88379012:88379013:+_ENSG00000170502_ENST00000302174|hu_hu|FALSE|FALSE (ssRNA)
RNA: GGGAGUUCUACAGUCCGACGAUCAUCAUUGAUGUCCACCCAUUUCACUUUUCCAGCAUCAUCUCCAGCUUCUAGCAUAAGAUUAUCCAUUAUCUCACCUGUUUCGUCAUGGUAGUUCACAGCUUCUGUCUCCAUCCAUGCAUUCAACAGAGGAUUGAGCAUCA
B5: 32338244_32338364_3061_CDS_ENSMUSG00000024002_ENSMUST00000121285|mouse|control|control (ssRNA)
RNA: GGGAGUUCUACAGUCCGACGAUCCAAAGGCGGUGGGGGUUGGGACUGCACCUUCACGGAAGGGAGUAGUGGUGUGGGAGGCUGCACCUUCUGCAGCUGCUGUAGGUACAACUGCAUCUGCAUGGAGGUGAGGGGUGGGGCAGGCAACAGAGGAUUGAGCAUCA
B6: chr12:72179577:72179578:+_ENSG00000080371_ENST00000261263|hu_hu|FALSE|FALSE (ssRNA)
RNA: GGGAGUUCUACAGUCCGACGAUCGUUUAGCACUUAAGGUCUCUGCAGUGUUAUAAACGUAAUUUAAAAUACUGUUAAUUCUAUAAUUCCAUUGGUAAAAUAAUGUGACUUGGAAUAUGGCAGUCUUCAUGUUGAGGGCAAUGACAACAGAGGAUUGAGCAUCA
B7: chr1:110565788:110565789:+_ENSG00000168710_ENST00000369799|hu_hu|FALSE|FALSE (ssRNA)
RNA: GGGAGUUCUACAGUCCGACGAUCCUUCUAUUUUUGUUUUUAAUGUCUGUCUCUCUGAUCAGUGGAAAAGUGAAAAUUUCUAGUAUCUAGCACUAACGUAUGACCCAACUUUGAGGGAUCACAAGCUAGAACAAGUUGAGGAUUCAACAGAGGAUUGAGCAUCA
B8: chr18:34481789:34481790:+_ENSMUSG00000005871_ENSMUST00000115781|mus_mus|FALSE|FALSE (ssRNA)
RNA: GGGAGUUCUACAGUCCGACGAUCAACAAGUGAACAGAAGUAUAGAGAAAAAUUAUCCUGAAUAUCAGAGGAAAGAAAGUCUAUUUAGCACCAAGAACAGCAUUAUACACAGAACAUACAGUCGGAAAGAUGCAUCAAUGGCCUCAACAGAGGAUUGAGCAUCA
B9: 48767909_48768029_1087_ncRNA_ENSMUSG00000026761_ENSMUST00000141441|mouse|control|control (ssRNA)
RNA: GGGAGUUCUACAGUCCGACGAUCGCACUUCAAAAUGUUAAUACAGAUUAUUAAUGAAUGUAUCAAAACAUAAGAUAGUCCAUUAAUAUGUAUAGUUUUUAUAUGCAAAAUAGGCAUAAUACGUAUGUACUUAUACAUAAAAAACAACAGAGGAUUGAGCAUCA
B10: chr1:220276048:220276049:+_ENSG00000067704_ENST00000302637|hu_hu|hu_hu_hu_mus_True|28_38 (ssRNA)
RNA: GGGAGUUCUACAGUCCGACGAUCGCAAAUUGCCUGGUUGGCGGGAAUUGUCCAAGGCUGGGUGGUCCAAACUAAAACGCUAACAGGGGAUGAGGCAUCUAUAAGAGAUGCCAAUUUCGGAGGAGGUCUCAGGAGGGGGAAUCUCAACAGAGGAUUGAGCAUCA
B11: chr3:179287964:179287965:+_ENSG00000136518_ENST00000429709|hu_hu|hu_hu_hu_mus_True|8_88 (ssRNA)
RNA: GGGAGUUCUACAGUCCGACGAUCCUUGAGUGGUGAGAUGGCCUCCAUAUUCUCCCUGGGCACGCGGAGGGCAUUGGUGUCUAUGUAGUAGGUGGGCCCGCCCUGCUUGCCUUUGUCACCAUCAAUCUCCAUUAAUGUACUUCCCAACAGAGGAUUGAGCAUCA
B12: chr17:57743871:57743872:+_ENSG00000141367_ENST00000269122|hu_mus|FALSE|FALSE (ssRNA)
RNA: GGGAGUUCUACAGUCCGACGAUCCAGCAGGCCCGCCUUCUCACACAGCUGGGCGAUAUGAGCCCGGUCAUAGUGGGUGAACAUCUGAUUCCCGAGAAUGGCAUCUGCAACUUGAGGUGCGUGCAUAAGGUUCAUCUCAAGCAACAACAGAGGAUUGAGCAUCA
B13: chr5:137520266:137520267:+_ENSG00000112984_ENST00000394894|hu_mus|FALSE|FALSE (ssRNA)
RNA: GGGAGUUCUACAGUCCGACGAUCCUCAAGGUCUGAGUCGGCCUUGUCCUCUUUCUCUAAGCCAGGGCCAACCUGAGGACUGUGCUUCUUGAUGAAUGAAUGCAGGGAUGGGAUUCCCAGAUGCACAGGUGGGGCGUGCACAAGCAACAGAGGAUUGAGCAUCA
B14: chr12:39756943:39756944:-_ENSG00000139116_ENST00000544797|hu_mus|hu_hu_hu_mus_False|58_58 (ssRNA)
RNA: GGGAGUUCUACAGUCCGACGAUCGGUUUGGCUGUUACCCCCAAGGGAAUCCUGCAAGAGUCUUGUCAGCUUAGAGUCUCUAUAGGGGACAUGGGUGGCUCUCUUGCUCUUGUCCCCCAAGGCGCUGAUUACAUUCCCAAGAGCCAACAGAGGAUUGAGCAUCA
B15: chr4:130382032:130382033:+_ENSMUSG00000025743_ENSMUST00000070478|mus_hu|FALSE|FALSE (ssRNA)
RNA: GGGAGUUCUACAGUCCGACGAUCGGCAGGCGCCUUGGUCUCUUUUUUCCACUGUCUUUUUCUUUUGUUUUUCUUAUUUAAGGUUUUGGCCAUGAACUCAGGACAGGUAUGGUUAAUAAACAGGUUACAGGGGAGAGAAGGGGCCAACAGAGGAUUGAGCAUCA
B16: chr3:176767854:176767855:-_ENSG00000177565_ENST00000430069|hu_hu|hu_hu_hu_mus_False|88_88 (ssRNA)
RNA: GGGAGUUCUACAGUCCGACGAUCGACAUCCUUGUUACUGGGCACGUCUUGCCCUCCUUCCCGUAUGCAGUGUCUAAGCACGAGCUGCGUAGGGCCACUCGUGCUGUUCUCACUGAGGUUCCAGAUUCUUGCCGUGGAGUCUCCCAACAGAGGAUUGAGCAUCA
B17: chrX:101156880:101156881:-_ENSMUSG00000056537_ENSMUST00000070705|mus_hu|FALSE|FALSE (ssRNA)
RNA: GGGAGUUCUACAGUCCGACGAUCAGGAAAACUUUAAAUUCUUCAGUUUUCUUUACUCCUCCCAUAUUUCACUUCCUGCCUAAAUCCAAGUUAAAUUAUACAAUUUCCACUGGUCUUCAACACGGUUUAAUUCUGCACUGUCCUCAACAGAGGAUUGAGCAUCA
B18: 63986605_63986725_5413_CDS_ENSG00000103657_ENST00000443617|human|control|control (ssRNA)
RNA: GGGAGUUCUACAGUCCGACGAUCGGGCUGUCCUAGCAUGGUGUCUGUACCACACAACUGUGACAAUACGUUUAGCAGACCAGUGGAAAUUGCCAAAGAAACAUCUACUGGUUGAUAAUGAACACUUAGGGCAAAAACUGUAACCAACAGAGGAUUGAGCAUCA
B19: chr15:85259290:85259291:-_ENSG00000140612_ENST00000559729|hu_mus|motif|central (ssRNA)
RNA: GGGAGUUCUACAGUCCGACGAUCAUUUAGGACUUGGUAGUACAGCUGCCUCUUGUUCAUCCGCCGCACAUCGUCGGGAAAGUCGGGAGACAGCAUGGUGAGAUGGAGAGCGCGACAACUAGCAGCCAAGAGGGCGCGAUAGAACAACAGAGGAUUGAGCAUCA
B20: chr4:174295105:174295106:+_ENSG00000164105_ENST00000296504|hu_hu|motif|central (ssRNA)
RNA: GGGAGUUCUACAGUCCGACGAUCUUGUGCUUUAUUAAGUCCUGGUCUGGUUGGUAGCUUGAAGUGUCUUUUGUAUCUCCGGAGUGUAUUUACUUGUAAUUGGUAUAAAUCAACCUCUGGGGUAUCAAUAUCUUGAACAGGUGACAACAGAGGAUUGAGCAUCA
B21: chr16:94651144:94651145:+_ENSMUSG00000040785_ENSMUST00000117648|mus_hu|mus_mus_mus_hu_True|28_98 (ssRNA)
RNA: GGGAGUUCUACAGUCCGACGAUCAUUUUCUUGAAUCAAGUGACCGAUAACAUAGUCCACUGCUUCAUUUAGAAAAUUUCUGCUAGAAAAACAGGUUGUAUAGUCUUCCGUGCUCAGAACUUUCCAAGAAAGCAAUUCUUUGAGCAACAGAGGAUUGAGCAUCA
B22: chr8:126347721:126347722:+_ENSMUSG00000019478_ENSMUST00000118535|mus_mus|FALSE|FALSE (ssRNA)
RNA: GGGAGUUCUACAGUCCGACGAUCCUGAUGAAGCAAGCAAGAUUUGCCAGUUCCCGCAUUUCCGAUGACCAAGAAUUUAAACAAGAAAUCGUAAGUCUCGGACAUGGCGGUCUGCGCCAUUCUGCCGCCACAGCUCCGCGGGGUCAACAGAGGAUUGAGCAUCA

The list shows a part of the results.

This experiment concerns the target T1, UNK ZnF1-3. Put plainly: nsRBNS (natural sequence RNA bind-n-seq); RBNS binding buffer (assumed for nsRBNS): 25 mM Tris pH 7.5, 150 mM KCl, 3 mM MgCl2, 0.01% Triton X-100, 500 ug/ml BSA, 20 U/ml SUPERase-In, 4 C; UNK is unkempt and MSI1 is Musashi-1; names of the RNAs are library labels; protein concentration not given here; high values mean tight binding.
The molecule B1 registered a binding signal of 0.238 enrichment R.
Molecule B2 gave a binding signal of 1.48 enrichment R.
Molecule B3 displayed a binding signal of 1.92 enrichment R.
B4 returned a binding signal of 0.729 enrichment R.
The molecule B5 had a binding signal of 1.45 enrichment R.
For the molecule B6, the binding signal stood at 1.53 enrichment R.
Regarding B7, the binding signal is 1.42 enrichment R.
B8 showed a binding signal of 2.49 enrichment R.
B9 yielded a binding signal of 0.897 enrichment R.
For B10, the binding signal was 2.67 enrichment R.
As for B11, the figure is 0.724 enrichment R.
Turning to B12, the binding signal turned out to be 0.995 enrichment R.
As for B13, the figure is 1.42 enrichment R.
In the case of B14, the binding signal came to 0.784 enrichment R.
Take B15: the binding signal turned out to be 1.31 enrichment R.
As for B16, the binding signal was determined as 0.387 enrichment R.
Turning to B17, the binding signal came to 1.14 enrichment R.
Consider B18, for which the binding signal was found to be 0.866 enrichment R.
With B19, the binding signal was 0.994 enrichment R.
B20 returned a binding signal of 0.898 enrichment R.
For B21, the binding signal amounted to 0.461 enrichment R.
B22 yielded a binding signal of 1.29 enrichment R.
